These results are taken from paper PMC12820563, “FoxP3 forms a head-to-head dimer in vivo and stabilizes its multimerization on adjacent microsatellites”.

The other results are listed elsewhere or left out.

The target of the assay is T1, MBP-FoxP1dN (Mus musculus, UniProt P58462 326-579).
T1 sequence: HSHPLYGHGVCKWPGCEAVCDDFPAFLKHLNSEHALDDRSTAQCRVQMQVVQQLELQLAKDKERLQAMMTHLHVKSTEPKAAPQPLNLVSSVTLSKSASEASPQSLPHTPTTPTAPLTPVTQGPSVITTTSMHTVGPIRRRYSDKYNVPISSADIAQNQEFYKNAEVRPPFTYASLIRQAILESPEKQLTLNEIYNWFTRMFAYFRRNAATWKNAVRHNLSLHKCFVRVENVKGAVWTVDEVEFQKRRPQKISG
Description: PD-seq (MBP pull-down with sequencing); 20 mM Tris-HCl pH 7.5, 100 mM NaCl, 1.5 mM MgCl2, 0.4 uM protein, 0.1 uM dsDNA library, 30 min, room temperature, amylose pull-down; high values mean tight binding. Conditions: protein: recombinant; tags: His6-MBP; chain copies: 2; dsDNA, one strand shown. In a few lines:
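A fragment of mouse FoxP3 or FoxP1 without its N-terminus, carrying a His6-MBP tag and produced in E. coli, was combined at 0.4 µM with a 0.1 µM degenerate double-stranded DNA library filled in with Klenow. The mixture sat for 30 min at room temperature in Tris pH 7.5 buffer containing NaCl and MgCl2. Protein–DNA complexes were captured on amylose resin, washed three times, and the DNA was freed with proteinase K, barcoded by PCR and sequenced on Illumina. Binding is expressed as reads-per-million enrichment of pull-down over input, with replicates pooled.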
Turning to “GATGATTGTTCTCCCAGCTGATGAATTTGGACCATCGAGTAAACAAATTTTCCTAATCTTTCTGTTCAAGCGCCATCTAC”, the binding signal is 0.935 RPM ratio (pull-down/input).
With “GATGATTGTTCTCCCAGCTGATGAATTGTAGAGTTCGAGTAAACAAATTTTCCTAATCTTTCTGTTCAAGCGCCATCTAC”, the binding signal was 0.9 RPM ratio (pull-down/input).
The figure for “GATGATTGTTCTCCCAGCTGATGAATTCATAAGATCGAGTAAACAAATTTTCCTAATCTTTCTGTTCAAGCGCCATCTAC” is 0.914 RPM ratio (pull-down/input).
Turning to “GATGATTGTTCTCCCAGCTGATGAATTCACAGTATCGAGTAAACAAATTTTCCTAATCTTTCTGTTCAAGCGCCATCTAC”, the binding signal was 0.978 RPM ratio (pull-down/input).
For “GATGATTGTTCTCCCAGCTGATGAATTATCCCACTCGAGTAAACAAATTTTCCTAATCTTTCTGTTCAAGCGCCATCTAC” the value was 0.896 RPM ratio (pull-down/input); for “GATGATTGTTCTCCCAGCTGATGAATTTAGCGTATCGAGTAAACAAATTTTCCTAATCTTTCTGTTCAAGCGCCATCTAC”, 1.01 RPM ratio (pull-down/input); for “GATGATTGTTCTCCCAGCTGATGAATTGAGCAGTTCGAGTAAACAAATTTTCCTAATCTTTCTGTTCAAGCGCCATCTAC”, 0.868 RPM ratio (pull-down/input).
On to “GATGATTGTTCTCCCAGCTGATGAATTTAGCAGGTCGAGTAAACAAATTTTCCTAATCTTTCTGTTCAAGCGCCATCTAC”, for which the binding signal is 0.868 RPM ratio (pull-down/input).
For “GATGATTGTTCTCCCAGCTGATGAATTTGCCCTATCGAGTAAACAAATTTTCCTAATCTTTCTGTTCAAGCGCCATCTAC” the value was 0.862 RPM ratio (pull-down/input); for “GATGATTGTTCTCCCAGCTGATGAATTTTCGATGTCGAGTAAACAAATTTTCCTAATCTTTCTGTTCAAGCGCCATCTAC”, 0.913 RPM ratio (pull-down/input); for “GATGATTGTTCTCCCAGCTGATGAATTTGCCCCCTCGAGTAAACAAATTTTCCTAATCTTTCTGTTCAAGCGCCATCTAC”, 0.853 RPM ratio (pull-down/input).
For “GATGATTGTTCTCCCAGCTGATGAATTTGTGCTGTCGAGTAAACAAATTTTCCTAATCTTTCTGTTCAAGCGCCATCTAC” the value was 1.31 RPM ratio (pull-down/input); for “GATGATTGTTCTCCCAGCTGATGAATTCCAGGCGTCGAGTAAACAAATTTTCCTAATCTTTCTGTTCAAGCGCCATCTAC”, 0.804 RPM ratio (pull-down/input); for “GATGATTGTTCTCCCAGCTGATGAATTGTCGGGTTCGAGTAAACAAATTTTCCTAATCTTTCTGTTCAAGCGCCATCTAC”, 0.911 RPM ratio (pull-down/input).
For “GATGATTGTTCTCCCAGCTGATGAATTCGTATTCTCGAGTAAACAAATTTTCCTAATCTTTCTGTTCAAGCGCCATCTAC” the value was 0.861 RPM ratio (pull-down/input); for “GATGATTGTTCTCCCAGCTGATGAATTCTTGTAATCGAGTAAACAAATTTTCCTAATCTTTCTGTTCAAGCGCCATCTAC”, 1.41 RPM ratio (pull-down/input).
As for “GATGATTGTTCTCCCAGCTGATGAATTAGGAGAGTCGAGTAAACAAATTTTCCTAATCTTTCTGTTCAAGCGCCATCTAC”, the binding signal is 0.855 RPM ratio (pull-down/input).
With “GATGATTGTTCTCCCAGCTGATGAATTTTCCCACTCGAGTAAACAAATTTTCCTAATCTTTCTGTTCAAGCGCCATCTAC”, the binding signal is 0.886 RPM ratio (pull-down/input).
Regarding “GATGATTGTTCTCCCAGCTGATGAATTACATTATTCGAGTAAACAAATTTTCCTAATCTTTCTGTTCAAGCGCCATCTAC”, the binding signal was 1.48 RPM ratio (pull-down/input).
As to “GATGATTGTTCTCCCAGCTGATGAATTAATTCTATCGAGTAAACAAATTTTCCTAATCTTTCTGTTCAAGCGCCATCTAC”, the binding signal is 0.992 RPM ratio (pull-down/input).
Regarding “GATGATTGTTCTCCCAGCTGATGAATTTATCTCGTCGAGTAAACAAATTTTCCTAATCTTTCTGTTCAAGCGCCATCTAC”, the binding signal was 1.12 RPM ratio (pull-down/input).
For “GATGATTGTTCTCCCAGCTGATGAATTCTGGAGGTCGAGTAAACAAATTTTCCTAATCTTTCTGTTCAAGCGCCATCTAC” the value was 0.729 RPM ratio (pull-down/input); for “GATGATTGTTCTCCCAGCTGATGAATTTGAGGCATCGAGTAAACAAATTTTCCTAATCTTTCTGTTCAAGCGCCATCTAC”, 0.995 RPM ratio (pull-down/input); for “GATGATTGTTCTCCCAGCTGATGAATTCAGTTGATCGAGTAAACAAATTTTCCTAATCTTTCTGTTCAAGCGCCATCTAC”, 1.13 RPM ratio (pull-down/input).
As to “GATGATTGTTCTCCCAGCTGATGAATTTTCACACTCGAGTAAACAAATTTTCCTAATCTTTCTGTTCAAGCGCCATCTAC”, the binding signal is 0.883 RPM ratio (pull-down/input).
The figure for “GATGATTGTTCTCCCAGCTGATGAATTTCGCTAGTCGAGTAAACAAATTTTCCTAATCTTTCTGTTCAAGCGCCATCTAC” is 0.836 RPM ratio (pull-down/input); for “GATGATTGTTCTCCCAGCTGATGAATTGACTGTATCGAGTAAACAAATTTTCCTAATCTTTCTGTTCAAGCGCCATCTAC” it is 1.16 RPM ratio (pull-down/input).
The figure for “GATGATTGTTCTCCCAGCTGATGAATTAAGAACATCGAGTAAACAAATTTTCCTAATCTTTCTGTTCAAGCGCCATCTAC” is 1.14 RPM ratio (pull-down/input); for “GATGATTGTTCTCCCAGCTGATGAATTACGATAGTCGAGTAAACAAATTTTCCTAATCTTTCTGTTCAAGCGCCATCTAC” it is 1.01 RPM ratio (pull-down/input).
Consider “GATGATTGTTCTCCCAGCTGATGAATTTCGTCTATCGAGTAAACAAATTTTCCTAATCTTTCTGTTCAAGCGCCATCTAC”, for which the binding signal is 0.927 RPM ratio (pull-down/input).
For “GATGATTGTTCTCCCAGCTGATGAATTGGGACGCTCGAGTAAACAAATTTTCCTAATCTTTCTGTTCAAGCGCCATCTAC”, the binding signal was 0.882 RPM ratio (pull-down/input).
